Assay results as given in paper PMC7819943, “Rice protein-binding microarrays: a tool to detect cis-acting elements near promoter regions in rice”.
This is one part of the list.

Each sequence was assayed against T1, OsWOX13 (Oryza sativa, UniProt Q5QMM3 1-267) (assay: protein-binding microarray (RPBM); PBS, 2% BSA, 51.3 ng/ul salmon testes DNA, 50 uM zinc acetate, 200 nM TF, 25 C, 1 h; high values mean tight binding). Details: protein: recombinant; tags: N-terminal polyhistidine and DsRed monomer fusion (pET32a); label: CyDye5-dUTP incorporated in the synthesized complementary strand; 3' TTTTT single-stranded linker to array surface; dsDNA, one strand shown.
T1 sequence: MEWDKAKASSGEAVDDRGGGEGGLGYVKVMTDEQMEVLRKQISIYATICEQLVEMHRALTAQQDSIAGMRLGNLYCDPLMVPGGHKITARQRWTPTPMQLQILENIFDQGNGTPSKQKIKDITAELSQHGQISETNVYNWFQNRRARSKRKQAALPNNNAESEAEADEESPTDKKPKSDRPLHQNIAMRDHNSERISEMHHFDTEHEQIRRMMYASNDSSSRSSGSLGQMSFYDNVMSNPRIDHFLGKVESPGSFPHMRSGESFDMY
Outline: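 Polyhistidine-tagged DsRed fusions of transcription factors, joined at the N-terminus, were expressed in E. coli BL21-CodonPlus and isolated on Ni–NTA. They were incubated at 200 nM for 1 h at 25 °C on a custom Agilent array, double-stranded and BSA-blocked, in PBS with 2% BSA, salmon testes DNA and 50 µM zinc acetate. The binding signal is per-feature fluorescence intensity (arbitrary units) read on an Axon 4000B scanner after washing.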
“TCACATGCATAATTTAGCTAAGATTGAATAATCTAATCAGCGGAGTCACCTAGTGCAG” was tested, and the binding signal was 17500 fluorescence intensity (a.u.). With “AAGTTGATTTTAGGCATGAAAAGTTGTGAAGTGGTATGCGCGGAGTCACCTAGTGCAG” the binding signal was 3380 fluorescence intensity (a.u.). “GGTGATTATACAGGCTCAAGCAGCTAGGAAGCATAACACCCGGAGTCACCTAGTGCAG” was tested, and the binding signal was 13100 fluorescence intensity (a.u.). With “ACAATCATCAACTCTAGATGACATGGACATATGTTACCACCGGAGTCACCTAGTGCAG” the binding signal was 6650 fluorescence intensity (a.u.). “AATTAATGACATTATCATTTTACATGCCATCTCCATCAGACGGAGTCACCTAGTGCAG” was tested, and the binding signal was 17100 fluorescence intensity (a.u.). In the case of “GAAAATTTAAAATTATGTCTATTAAAATTTTAGGAAATTTCGGAGTCACCTAGTGCAG”, the binding signal is reported as 16900 fluorescence intensity (a.u.). In the case of “CCCTTTATTTGCTTATGATTTGTATTAGTTTGGTCAATATCGGAGTCACCTAGTGCAG”, the binding signal is reported as 10800 fluorescence intensity (a.u.). In the case of “ATTCAGATATCTCAATCATCATAAAATCGTGGTCATCTCCCGGAGTCACCTAGTGCAG”, the binding signal is reported as 9050 fluorescence intensity (a.u.). In the case of “TAAAATTTTAAAACTTAATTTTAAAGTCTACCTTTAGGCTCGGAGTCACCTAGTGCAG”, the binding signal is reported as 17000 fluorescence intensity (a.u.). “GTGACAGACAAGACGAAGAAATGTCATGGCTGGAGGCGGTCGGAGTCACCTAGTGCAG” was tested, and the binding signal was 3960 fluorescence intensity (a.u.). In the case of “GCATGGATCCAATTAACTCTTTCTATTTTGTGTCTAGGTTCGGAGTCACCTAGTGCAG”, the binding signal is reported as 3200 fluorescence intensity (a.u.). In the case of “GACCTTATTTGCATTGATTGACCTTATTTGCATTGATTTTCGGAGTCACCTAGTGCAG”, the binding signal is reported as 19600 fluorescence intensity (a.u.). In the case of “ATAATTGCATCAATCTTGTGTTGAGTTATATGTTCAGTGCCGGAGTCACCTAGTGCAG”, the binding signal is reported as 44500 fluorescence intensity (a.u.). With “CTTCTCTTTCCGGCTGTAATTGAAATGCAGCAGCTGTAGACGGAGTCACCTAGTGCAG” the binding signal was 5520 fluorescence intensity (a.u.). In the case of “TATTGATTATTAATAAAAGAGTAAATTTTAGATAACCCCACGGAGTCACCTAGTGCAG”, the binding signal is reported as 33800 fluorescence intensity (a.u.). For “CACGGATGAATTGTCAATTTGTCATGCGTCCGACGACGGACGGAGTCACCTAGTGCAG”, the binding signal was 19300 fluorescence intensity (a.u.). With “AGAGCACATACTAATTAATGAAAATCATAAAACAAGGAGCCGGAGTCACCTAGTGCAG” the binding signal was 5260 fluorescence intensity (a.u.). For “AGATTGATTTAGAATTTGATTTTATCAAGTGTTGGATGTCCGGAGTCACCTAGTGCAG”, the binding signal was 46300 fluorescence intensity (a.u.). For “TTATAATCAGTTCTTTACATTGATGAAATAAAGGATTTCCCGGAGTCACCTAGTGCAG”, the binding signal was 4280 fluorescence intensity (a.u.). In the case of “ACCCCTAATTTAATTCTCAATTAACCAGGTACTGTCCTAACGGAGTCACCTAGTGCAG”, the binding signal is reported as 34100 fluorescence intensity (a.u.). “GGGATTATTTAGATTTGTTATATTAGGAAGGATCACAAGTCGGAGTCACCTAGTGCAG” was tested, and the binding signal was 12000 fluorescence intensity (a.u.). With “AGCAGATTGACCGATTCACCAGAATTCCTGAATCTCTCAACGGAGTCACCTAGTGCAG” the binding signal was 12700 fluorescence intensity (a.u.). With “TTGACTAACCAGAGGATTGATTCACTCGAGGAGGCGGCGGCGGAGTCACCTAGTGCAG” the binding signal was 7860 fluorescence intensity (a.u.). “ACAAACCCATAATTTGTGAGGAGACAAGAACAATCAATATCGGAGTCACCTAGTGCAG” was tested, and the binding signal was 3670 fluorescence intensity (a.u.). In the case of “TATAATTAGGCTGTTCACAATGCTTGTGTAATGCTGATTGCGGAGTCACCTAGTGCAG”, the binding signal is reported as 19000 fluorescence intensity (a.u.). For “GGCTACAGATTGGTAGCCAGCTGTAGCACGGACTCCTACACGGAGTCACCTAGTGCAG”, the binding signal was 4260 fluorescence intensity (a.u.). In the case of “ACTGATGAAGTTAAGCTAATTAAATCCAGCCCACAAACACCGGAGTCACCTAGTGCAG”, the binding signal is reported as 12100 fluorescence intensity (a.u.). “ACGTGCAATTCACTCATCTTAATTTAAGGTATGTAAACTCCGGAGTCACCTAGTGCAG” was tested, and the binding signal was 3920 fluorescence intensity (a.u.). “CCCTATCCAGTTAAATTACGTTTACTTCACGTCAAGCGGTCGGAGTCACCTAGTGCAG” was tested, and the binding signal was 4370 fluorescence intensity (a.u.). For “AGATTTAATTGCAATGAATACAACGGTGTGATCGGATCGTCGGAGTCACCTAGTGCAG”, the binding signal was 30900 fluorescence intensity (a.u.). “AATATATGTTTAAAATTTTCTATTATATATAATTACAGTACGGAGTCACCTAGTGCAG” was tested, and the binding signal was 3360 fluorescence intensity (a.u.). For “TAGACAGATTGCGTGTAAATTGTGAGACGAATCTTTTAAGCGGAGTCACCTAGTGCAG”, the binding signal was 23600 fluorescence intensity (a.u.). For “AGGTGAGATAATCAAATTGTTAGCTACAACTTACTAAGCCCGGAGTCACCTAGTGCAG”, the binding signal was 3560 fluorescence intensity (a.u.). For “GCGTGTGACTATAATTACGTGGCTTTCCTTCCTGAAGCCGCGGAGTCACCTAGTGCAG”, the binding signal was 6790 fluorescence intensity (a.u.). In the case of “TTTAATTAAGCAAACACACTTGACATACTTTTAAGTATTGCGGAGTCACCTAGTGCAG”, the binding signal is reported as 12700 fluorescence intensity (a.u.). For “ACCAAATTTGATAAGGTTTATTTTGGCTACAATCAGAACACGGAGTCACCTAGTGCAG”, the binding signal was 8770 fluorescence intensity (a.u.). With “TTAATTTGAAAACTTAAAATTGGTATGCATATTCTTGTCTCGGAGTCACCTAGTGCAG” the binding signal was 9480 fluorescence intensity (a.u.). For “TCTCAATAAATTACAACAATTTCTCGTCTCAACCTTAGTTCGGAGTCACCTAGTGCAG”, the binding signal was 7520 fluorescence intensity (a.u.). With “TTAATTATAAATATTAAACGTAGACTATTAATAAAACTCACGGAGTCACCTAGTGCAG” the binding signal was 8680 fluorescence intensity (a.u.). In the case of “GACCAATCAAACAAACTTCCATAGAGGATCATCCTCCCTTCGGAGTCACCTAGTGCAG”, the binding signal is reported as 9370 fluorescence intensity (a.u.). For “AATTAATGTGAGATTTTATAGCCTCCATAATGAATGTGGTCGGAGTCACCTAGTGCAG”, the binding signal was 4230 fluorescence intensity (a.u.). “TATATTTAATTATCGATTTGATGAAACTAATTTAGTATTACGGAGTCACCTAGTGCAG” was tested, and the binding signal was 14500 fluorescence intensity (a.u.).
